# This is one part of the list.
# B1: SialidaseA (Arthrobacter ureafaciens) (protein)
# chain: MRSNSTSAPSLVRRAATGVLTCAVSIGLLAGLGLPAQAAPTPPNSPTLPPGSFSETNLAADRTAANFFYRIPALTYLGNDVVLAAWDGRPGSAADAPNPNSIVQRRSTDGGKTWGPVQVIAAGHVADASGPRYGYSDPSYIYDAEANKVFAFFVYSKDQGFGGSQFGNDDADRNVISSAVIESSDAGVTWSQPRLITSVTKPGTSKTNPAAGDVRSNFASSGEGIQLKYGPHKGRLIQQYAGDVRQADGSNKIQAYSVYSDDHGVTWHKGANVGDRMDENKTVELSDGRVLLNSRDNANRGYRKVAVSTDGGATYGPVSQDTELPDPANNGAIARMFPNAAQGSADAKKLIFTNANSKTGRENVSARVSCDDGETWPGVRTIRSGFSAYSTVTRLADGKFGVLYEGNYTDNMPFATFDDAWLNYVCAPLAVPAVNIAPSATQEVPVTVTNQEATTLSGATATVYTPSGWSATTVPVPDVAPGASVTVTVALTAPADASGPRSLNAAFTTADGRVSQFTFTATTPVAPQVGLTITGSAPARDVAANPYQAGDVLGYTLNVKSTANVAANSVPLTGTFDSGFLPPAAPNCRYNNLAAGASYNCTTAKHTITAADMERGYFVPEATFSITSTTTPSLTKTVQFTGAAVALRDGLISADISGARTDVGRDLATRPYAAGELVPYAFTVKNTSPFVEQVVPTAGNFSPFLPAGAGNCRYLSLPAGQSYECATPRHAVTAEEVEQGFFVPDTTWEVSAAGQSTRTYRINGGEVDLLVRDAALSATVVAEWKDADGDRFASAGDPVTFTYTVGNAGNVALTGLEAPDAGISLPFLAPGDTATATREHVLTAADVAGGSLAASAFEATARNGSKEVTATAEGQPLELKVQPAQPSKEPELTVQDLEDQTPPFDLGTAFKYRTGQKVSLAGLEYGQWYYVYLNKTGYRLGWMFPTTGDTVEFILPPEVRNGRDDVVVLDKDGRRVSFDRLQVTPKGEKI
# Tests used:
# Experiment in all cases: glycan array binding signal (z-score within array); higher = stronger binding
# Conditions in all cases: glycan notation: IUPAC condensed, linker removed
# Fuc(a1-2)Gal = target: Fuc(a1-2)Gal
# How it was run: (§1)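 Columns mapping to the same glycan were averaged after glycan names were converted to IUPAC-condensed notation. The data come from 3228 arrays in the Consortium for Functional Glycomics database, limited to those with an available protein sequence. Binding is reported as a within-array Z-score averaged across arrays of one protein sequence and across linkers.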
# Fuc(a1-2)Gal(b1-3)GalNAc = target: Fuc(a1-2)Gal(b1-3)GalNAc
# How it was run: as §1
# [1] = target: Fuc(a1-2)Gal(b1-3)GalNAc(a1-3)[Fuc(a1-2)]Gal(b1-4)Glc
# How it was run: as §1
# [2] = target: Fuc(a1-2)Gal(b1-3)GalNAc(a1-3)[Fuc(a1-2)]Gal(b1-4)GlcNAc
# How it was run: as §1
# [3] = target: Fuc(a1-2)Gal(b1-3)GalNAc(b1-3)Gal
# How it was run: as §1
# [4] = target: Fuc(a1-2)Gal(b1-3)GalNAc(b1-3)Gal(a1-4)Gal(b1-4)Glc
# How it was run: as §1
# [5] = target: Fuc(a1-2)Gal(b1-3)GalNAc(b1-4)[Neu5Ac(a2-3)]Gal(b1-4)Glc
# How it was run: as §1
# Fuc(a1-2)Gal(b1-3)GlcNAc = target: Fuc(a1-2)Gal(b1-3)GlcNAc
# How it was run: as §1
# [6] = target: Fuc(a1-2)Gal(b1-3)GlcNAc(b1-2)Man(a1-3)[Fuc(a1-2)Gal(b1-3)GlcNAc(b1-2)Man(a1-6)]Man(b1-4)GlcNAc(b1-4)GlcNAc
# How it was run: as §1
# [7] = target: Fuc(a1-2)Gal(b1-3)GlcNAc(b1-2)Man(a1-3)[Fuc(a1-2)Gal(b1-3)GlcNAc(b1-2)Man(a1-6)]Man(b1-4)GlcNAc(b1-4)[Fuc(a1-6)]GlcNAc
# How it was run: as §1
# [8] = target: Fuc(a1-2)Gal(b1-3)GlcNAc(b1-3)Gal(b1-4)Glc
# How it was run: as §1
# [9] = target: Fuc(a1-2)Gal(b1-3)GlcNAc(b1-3)GalNAc
# How it was run: as §1
# [10] = target: Fuc(a1-2)Gal(b1-3)GlcNAc(b1-3)[Fuc(a1-2)Gal(b1-3)GlcNAc(b1-6)]GalNAc
# How it was run: as §1
# [11] = target: Fuc(a1-2)Gal(b1-3)GlcNAc(b1-3)[Gal(b1-4)GlcNAc(b1-6)]Gal(b1-4)Glc
# How it was run: as §1
# [12] = target: Fuc(a1-2)Gal(b1-3)GlcNAc(b1-3)[Neu5Ac(a2-6)Gal(b1-4)GlcNAc(b1-6)]Gal(b1-4)Glc
# How it was run: as §1
# [13] = target: Fuc(a1-2)Gal(b1-3)GlcNAc6S
# How it was run: as §1
# [14] = target: Fuc(a1-2)Gal(b1-3)[Fuc(a1-4)]GlcNAc
# How it was run: as §1
# [15] = target: Fuc(a1-2)Gal(b1-3)[Fuc(a1-4)]GlcNAc(b1-2)Man(a1-3)[Fuc(a1-2)Gal(b1-3)[Fuc(a1-4)]GlcNAc(b1-2)Man(a1-3)]Man(b1-4)GlcNAc(b1-4)GlcNAc
# How it was run: as §1
# [16] = target: Fuc(a1-2)Gal(b1-3)[Fuc(a1-4)]GlcNAc(b1-2)Man(a1-3)[Fuc(a1-2)Gal(b1-3)[Fuc(a1-4)]GlcNAc(b1-2)Man(a1-6)]Man(b1-4)GlcNAc(b1-4)[Fuc(a1-6)]GlcNAc(b1-4)[Fuc(a1-6)]GlcNAc
# How it was run: as §1
# [17] = target: Fuc(a1-2)Gal(b1-3)[Fuc(a1-4)]GlcNAc(b1-3)[Fuc(a1-3)[Gal(b1-4)]GlcNAc(b1-6)]Gal(b1-4)Glc
# How it was run: as §1
# [18] = target: Fuc(a1-2)Gal(b1-3)[Fuc(a1-4)]GlcNAc(b1-3)[Gal(b1-4)GlcNAc(b1-6)]Gal(b1-4)Glc
# How it was run: as §1
# Fuc(a1-2)Gal(b1-4)Glc = target: Fuc(a1-2)Gal(b1-4)Glc
# How it was run: as §1
# Fuc(a1-2)Gal(b1-4)Glc6S = target: Fuc(a1-2)Gal(b1-4)Glc6S
# How it was run: as §1
# Fuc(a1-2)Gal(b1-4)GlcNAc = target: Fuc(a1-2)Gal(b1-4)GlcNAc
# How it was run: as §1
# [19] = target: Fuc(a1-2)Gal(b1-4)GlcNAc(b1-2)Man
# How it was run: as §1
# [20] = target: Fuc(a1-2)Gal(b1-4)GlcNAc(b1-2)Man(a1-3)[Fuc(a1-2)Gal(b1-4)GlcNAc(b1-2)Man(a1-6)]Man(b1-4)GlcNAc(b1-4)GlcNAc
# How it was run: as §1
# [21] = target: Fuc(a1-2)Gal(b1-4)GlcNAc(b1-2)Man(a1-3)[Fuc(a1-2)Gal(b1-4)GlcNAc(b1-2)Man(a1-6)]Man(b1-4)GlcNAc(b1-4)[Fuc(a1-6)]GlcNAc
# How it was run: as §1
# [22] = target: Fuc(a1-2)Gal(b1-4)GlcNAc(b1-2)[Fuc(a1-2)Gal(b1-4)GlcNAc(b1-4)]Man(a1-3)[Fuc(a1-2)Gal(b1-4)GlcNAc(b1-2)Man(a1-6)]Man(b1-4)GlcNAc(b1-4)GlcNAc
# How it was run: as §1
# [23] = target: Fuc(a1-2)Gal(b1-4)GlcNAc(b1-3)Gal(b1-4)GlcNAc
# How it was run: as §1
# [24] = target: Fuc(a1-2)Gal(b1-4)GlcNAc(b1-3)Gal(b1-4)GlcNAc(b1-2)Man(a1-3)[Fuc(a1-2)Gal(b1-4)GlcNAc(b1-3)Gal(b1-4)GlcNAc(b1-2)Man(a1-6)]Man(b1-4)GlcNAc(b1-4)GlcNAc
# How it was run: as §1
binder,measurement,setting,value
B1,glycan array binding signal (z-score),Fuc(a1-2)Gal,-0.056
same,glycan array binding signal (z-score),Fuc(a1-2)Gal(b1-3)GalNAc,-0.618
same,glycan array binding signal (z-score),[1],-0.586
same,glycan array binding signal (z-score),[2],-0.506
same,glycan array binding signal (z-score),[3],-0.841
same,glycan array binding signal (z-score),[4],-0.322
same,glycan array binding signal (z-score),[5],1.39
same,glycan array binding signal (z-score),Fuc(a1-2)Gal(b1-3)GlcNAc,-0.414
same,glycan array binding signal (z-score),[6],0.077
same,glycan array binding signal (z-score),[7],-0.16
same,glycan array binding signal (z-score),[8],-0.332
same,glycan array binding signal (z-score),[9],-0.396
same,glycan array binding signal (z-score),[10],-0.453
same,glycan array binding signal (z-score),[11],-0.768
same,glycan array binding signal (z-score),[12],-0.758
same,glycan array binding signal (z-score),[13],-0.849
same,glycan array binding signal (z-score),[14],-0.69
same,glycan array binding signal (z-score),[15],-0.498
same,glycan array binding signal (z-score),[16],-0.524
same,glycan array binding signal (z-score),[17],-0.786
same,glycan array binding signal (z-score),[18],-0.84
same,glycan array binding signal (z-score),Fuc(a1-2)Gal(b1-4)Glc,-0.801
same,glycan array binding signal (z-score),Fuc(a1-2)Gal(b1-4)Glc6S,-0.423
same,glycan array binding signal (z-score),Fuc(a1-2)Gal(b1-4)GlcNAc,-0.44
same,glycan array binding signal (z-score),[19],-0.715
same,glycan array binding signal (z-score),[20],-0.188
same,glycan array binding signal (z-score),[21],-0.135
same,glycan array binding signal (z-score),[22],-0.568
same,glycan array binding signal (z-score),[23],-0.698
same,glycan array binding signal (z-score),[24],1.3

# Reference: the supplement of paper PMC8728848
